The text below walks through data of publication PMC4336329 (PLoS ONE, 2015).

Out of some 310,000 compounds screened, about 2,200 (0.71%) showed an effect of 50% or more. Effects have a minus sign here. The list shows a part of the results.

In this experiment the target is human ether-à-go-go-related gene (hERG) potassium channel (human, UniProt Q12809). Briefly: primary screen, population patch clamp on CHO cells stably expressing hERG.
human ether-à-go-go-related gene (hERG) potassium channel, sequence (Q12809 whole entry, looked up): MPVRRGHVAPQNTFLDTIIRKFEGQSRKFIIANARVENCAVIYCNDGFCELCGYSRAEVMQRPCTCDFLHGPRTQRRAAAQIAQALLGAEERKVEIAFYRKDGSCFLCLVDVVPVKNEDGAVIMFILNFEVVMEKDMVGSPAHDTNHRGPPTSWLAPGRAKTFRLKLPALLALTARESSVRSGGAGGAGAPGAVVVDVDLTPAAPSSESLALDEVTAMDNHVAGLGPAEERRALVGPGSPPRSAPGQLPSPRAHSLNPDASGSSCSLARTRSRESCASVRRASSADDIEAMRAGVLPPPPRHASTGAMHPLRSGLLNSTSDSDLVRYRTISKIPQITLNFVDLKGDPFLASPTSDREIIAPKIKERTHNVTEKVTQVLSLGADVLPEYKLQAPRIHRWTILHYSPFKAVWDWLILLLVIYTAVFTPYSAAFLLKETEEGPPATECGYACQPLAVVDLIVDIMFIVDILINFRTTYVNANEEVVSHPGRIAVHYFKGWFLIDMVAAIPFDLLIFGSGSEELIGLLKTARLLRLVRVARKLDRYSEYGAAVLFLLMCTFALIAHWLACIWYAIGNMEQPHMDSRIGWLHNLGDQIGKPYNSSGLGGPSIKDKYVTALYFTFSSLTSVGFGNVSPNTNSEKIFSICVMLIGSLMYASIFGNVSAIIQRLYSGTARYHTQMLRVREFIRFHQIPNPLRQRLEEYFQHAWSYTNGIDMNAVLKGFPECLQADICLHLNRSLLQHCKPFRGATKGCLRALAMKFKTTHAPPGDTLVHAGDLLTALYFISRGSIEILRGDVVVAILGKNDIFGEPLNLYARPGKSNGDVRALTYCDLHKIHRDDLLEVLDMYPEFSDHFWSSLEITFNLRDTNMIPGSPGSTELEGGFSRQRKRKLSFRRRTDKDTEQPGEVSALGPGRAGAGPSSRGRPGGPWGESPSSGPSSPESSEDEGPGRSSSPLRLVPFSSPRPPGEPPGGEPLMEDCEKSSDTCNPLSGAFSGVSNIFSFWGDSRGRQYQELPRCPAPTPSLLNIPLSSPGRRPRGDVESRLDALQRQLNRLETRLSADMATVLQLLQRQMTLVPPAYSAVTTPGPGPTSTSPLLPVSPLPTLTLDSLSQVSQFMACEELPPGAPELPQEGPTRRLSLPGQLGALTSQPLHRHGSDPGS
Turning to `C/C(=N\NC(=O)CC1N=C(Cc2ccccc2)NNC1=O)c1ccccc1` (stereo not shown), the “hERG current change (%, negative = inhibition) at 1uM” value amounted to 6.05%.
The result for `CC(NC(=O)Cc1ccc(S(=O)(=O)N2CCOCC2)s1)c1ccc(Cl)c(Cl)c1` (stereo not shown) reads 0.0138%.
As for `CC(=O)NCCC1CCCCN1C(=O)c1cc(COc2cc(C)ccc2C)on1` (stereo not shown), the figure is 9.15%.
With `CCC(=O)Nc1ccc(NC(=O)c2c(C)nc3ccccn23)cc1`, the “hERG current change (%, negative = inhibition) at 1uM” value stood at 12.7%.
The result for `COc1ccccc1Oc1ccc(S(=O)(=O)N2CCN(C)CC2)cc1` reads 11.9%; that for `Cc1cc(C)cc(-n2c(SCC(=O)Nc3cccc(S(=O)(=O)NC4=NCCCCC4)c3)nc3ccccc3c2=O)c1`, 7.94%; that for `CC(C)C(=O)Nc1cccc(-c2cn3ccsc3n2)c1`, 4.95%.
`Cc1ccc(/C=C/C(=O)Nc2ncc(C)s2)o1`: the “hERG current change (%, negative = inhibition) at 1uM” value is given as -3.75%.
The result for `CC(C)Oc1cccc(C(=O)NC(=S)Nc2ccc(N3CCN(C)CC3)cc2)c1` reads 5.25%; that for `Cc1ccc(N2C(=O)CC(Sc3ncn[nH]3)C2=O)cc1` (stereo not shown), 13.7%; that for `O=C(COc1ccccc1F)NCC(c1ccc(F)cc1)N1CCOCC1` (stereo not shown), 2.42%.
For the compound `COC(=O)C1CCN(C(=O)/C=C/c2ccc(OC)cc2)CC1`, the “hERG current change (%, negative = inhibition) at 1uM” value stood at 7.74%.
With `O=C(CSc1ncnc2sc3c(c12)CCC3)N1CCOCC1`, the “hERG current change (%, negative = inhibition) at 1uM” value was 14.3%.
As to `Cc1ccc(C(=O)NC(=S)Nc2ccccc2C(F)(F)F)cc1C`, the “hERG current change (%, negative = inhibition) at 1uM” value was 8.01%.
As for `CCOC(=O)C1CCCN(c2oc(-c3ccc(OC)cc3)nc2C#N)C1` (stereo not shown), the figure is 11.3%.
`COc1ccc(CCn2c(NN)nc3c2c(=O)[nH]c(=O)n3C)cc1`: the “hERG current change (%, negative = inhibition) at 1uM” value is 14.4%.
As for `COc1ccc(Oc2cc(NC(=O)c3nn(C)cc3[N+](=O)[O-])cc([N+](=O)[O-])c2)cc1`, the “hERG current change (%, negative = inhibition) at 1uM” value is on record as 9.4%.
With `Cc1ccccc1NC(=S)N(C)Cc1cn(C)c2ccccc12`, the “hERG current change (%, negative = inhibition) at 1uM” value is -1.17%.
Consider `N#Cc1cccc(NC(=O)CCn2ccnc2)c1`, for which the “hERG current change (%, negative = inhibition) at 1uM” value was 10.6%.
As for `Clc1ccc(C2=NN(c3ccccc3)C(c3ccco3)C2)cc1` (stereo not shown), the figure is 14.5%; as for `Cc1cccc(NC(=O)c2cc(NC(=O)C3CCCCC3C(=O)O)ccc2Cl)n1` (stereo not shown), 9.09%; as for `CN(C(=O)c1ccno1)c1nnc(-c2ccccn2)s1`, 3.84%.
The result for `Cl.Cn1cccc1CNC1CCCCC1` reads 7.06%; that for `Cn1nc(C(F)(F)F)c(-c2ccc(Br)cc2)c1NC(=O)c1cccnc1`, -1.83%.
The result for `Cc1ccc(S(=O)(=O)Nc2nc3ccccc3s2)cc1` reads 8.44%.
